In article PMC4911399:
Results are given in words; binding and its absence hold for the method and conditions named. Some entries that bind do so weakly or less than the wild type.

Sequences of proteins named here, by UniProt entry; tags and fusion partners are left off. Residues count along the entry.
UniProt P14713, residues 1-621: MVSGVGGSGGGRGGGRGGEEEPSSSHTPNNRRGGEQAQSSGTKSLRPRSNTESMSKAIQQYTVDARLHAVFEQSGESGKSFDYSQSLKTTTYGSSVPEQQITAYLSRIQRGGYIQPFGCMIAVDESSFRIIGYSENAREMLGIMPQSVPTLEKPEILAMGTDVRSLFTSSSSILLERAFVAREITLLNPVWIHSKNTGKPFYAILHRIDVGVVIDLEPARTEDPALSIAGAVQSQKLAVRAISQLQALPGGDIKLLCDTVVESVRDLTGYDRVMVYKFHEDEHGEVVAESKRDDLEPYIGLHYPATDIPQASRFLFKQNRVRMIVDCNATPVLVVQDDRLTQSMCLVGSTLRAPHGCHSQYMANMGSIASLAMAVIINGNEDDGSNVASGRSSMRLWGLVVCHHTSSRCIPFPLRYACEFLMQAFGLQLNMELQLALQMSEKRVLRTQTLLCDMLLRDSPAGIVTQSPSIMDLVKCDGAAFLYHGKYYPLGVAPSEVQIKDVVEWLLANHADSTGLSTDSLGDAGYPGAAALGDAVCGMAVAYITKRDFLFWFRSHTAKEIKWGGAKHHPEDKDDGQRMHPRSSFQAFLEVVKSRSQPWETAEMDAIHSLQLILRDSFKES

Biological target: phyB N-terminus (N-terminal 621 aa of phyB) fused to the GAL4 DNA-binding domain (Arabidopsis) (UniProt P14713)
Assay: two-hybrid; plate growth assay, strain AH109 pre-transformed with pBAC-N (phyB-N as bait), PIF variants in pGAD; selection plates -W/L/H, 1 mM 3AT, 40 ug/ml X-alpha-Gal; R light 0.9 umoles m^-2 s^-1

Binder	binding
PIF1, wild type, in pGAD (protein, UniProt Q8GZM7 1-478) MHHFVPDFDTDDDYVNNHNSSLNHLPRKSITTMGEDDDLMELLWQNGQVVVQNQRLHTKKPSSSPPKLLPSMDPQQQPSSDQNLFIQEDEMTSWLHYPLRDDDFCSDLLFSAAPTATATATVSQVTAARPPVSSTNESRPPVRNFMNFSRLRGDFNNGRGGESGPLLSKAVVRESTQVSPSATPSAAASESGLTRRTDGTDSSAVAGGGAYNRKGKAVAMTAPAIEITGTSSSVVSKSEIEPEKTNVDDRKRKEREATTTDETESRSEETKQARVSTTSTKRSRAAEVHNLSERKRRDRINERMKALQELIPRCNKSDKASMLDEAIEYMKSLQLQIQMMSMGCGMMPMMYPGMQQYMPHMAMGMGMNQPIPPPSFMPFPNMLAAQRPLPTQTHMAGSGPQYPVHASDPSRVFVPNQQYDPTSGQPQYPAGYTDPYQQFRGLHPTQPPQFQNQATSYPSSSRVSSSKESEDHGNHTTG	binds
PIF5, wild type, in pGAD (protein, UniProt Q84LH8 1-444) MEQVFADWNFEDNFHMSTNKRSIRPEDELVELLWRDGQVVLQSQARREPSVQVQTHKQETLRKPNNIFLDNQETVQKPNYAALDDQETVSWIQYPPDDVIDPFESEFSSHFFSSIDHLGGPEKPRTIEETVKHEAQAMAPPKFRSSVITVGPSHCGSNQSTNIHQATTLPVSMSDRSKNVEERLDTSSGGSSGCSYGRNNKETVSGTSVTIDRKRKHVMDADQESVSQSDIGLTSTDDQTMGNKSSQRSGSTRRSRAAEVHNLSERRRRDRINERMKALQELIPHCSRTDKASILDEAIDYLKSLQMQLQVMWMGSGMAAAAAAAASPMMFPGVQSSPYINQMAMQSQMQLSQFPVMNRSAPQNHPGLVCQNPVQLQLQAQNQILSEQLARYMGGIPQMPPAGNQMQTVQQQPADMLGFGSPAGPQSQLSAPATTDSLHMGKIG	binds
PIF5 W91A in pGAD (protein, UniProt Q84LH8 1-444) MEQVFADWNFEDNFHMSTNKRSIRPEDELVELLWRDGQVVLQSQARREPSVQVQTHKQETLRKPNNIFLDNQETVQKPNYAALDDQETVSAIQYPPDDVIDPFESEFSSHFFSSIDHLGGPEKPRTIEETVKHEAQAMAPPKFRSSVITVGPSHCGSNQSTNIHQATTLPVSMSDRSKNVEERLDTSSGGSSGCSYGRNNKETVSGTSVTIDRKRKHVMDADQESVSQSDIGLTSTDDQTMGNKSSQRSGSTRRSRAAEVHNLSERRRRDRINERMKALQELIPHCSRTDKASILDEAIDYLKSLQMQLQVMWMGSGMAAAAAAAASPMMFPGVQSSPYINQMAMQSQMQLSQFPVMNRSAPQNHPGLVCQNPVQLQLQAQNQILSEQLARYMGGIPQMPPAGNQMQTVQQQPADMLGFGSPAGPQSQLSAPATTDSLHMGKIG	binds
PIF1 with the APB-domain residue E41 exchanged to alanine, in pGAD (protein, UniProt Q8GZM7 1-478) MHHFVPDFDTDDDYVNNHNSSLNHLPRKSITTMGEDDDLMALLWQNGQVVVQNQRLHTKKPSSSPPKLLPSMDPQQQPSSDQNLFIQEDEMTSWLHYPLRDDDFCSDLLFSAAPTATATATVSQVTAARPPVSSTNESRPPVRNFMNFSRLRGDFNNGRGGESGPLLSKAVVRESTQVSPSATPSAAASESGLTRRTDGTDSSAVAGGGAYNRKGKAVAMTAPAIEITGTSSSVVSKSEIEPEKTNVDDRKRKEREATTTDETESRSEETKQARVSTTSTKRSRAAEVHNLSERKRRDRINERMKALQELIPRCNKSDKASMLDEAIEYMKSLQLQIQMMSMGCGMMPMMYPGMQQYMPHMAMGMGMNQPIPPPSFMPFPNMLAAQRPLPTQTHMAGSGPQYPVHASDPSRVFVPNQQYDPTSGQPQYPAGYTDPYQQFRGLHPTQPPQFQNQATSYPSSSRVSSSKESEDHGNHTTG	no binding
PIF5 with the APB-domain residue E31 exchanged to alanine, in pGAD (protein, UniProt Q84LH8 1-444) MEQVFADWNFEDNFHMSTNKRSIRPEDELVALLWRDGQVVLQSQARREPSVQVQTHKQETLRKPNNIFLDNQETVQKPNYAALDDQETVSWIQYPPDDVIDPFESEFSSHFFSSIDHLGGPEKPRTIEETVKHEAQAMAPPKFRSSVITVGPSHCGSNQSTNIHQATTLPVSMSDRSKNVEERLDTSSGGSSGCSYGRNNKETVSGTSVTIDRKRKHVMDADQESVSQSDIGLTSTDDQTMGNKSSQRSGSTRRSRAAEVHNLSERRRRDRINERMKALQELIPHCSRTDKASILDEAIDYLKSLQMQLQVMWMGSGMAAAAAAAASPMMFPGVQSSPYINQMAMQSQMQLSQFPVMNRSAPQNHPGLVCQNPVQLQLQAQNQILSEQLARYMGGIPQMPPAGNQMQTVQQQPADMLGFGSPAGPQSQLSAPATTDSLHMGKIG	no binding
PIF1 E41V in pGAD (protein, UniProt Q8GZM7 1-478) MHHFVPDFDTDDDYVNNHNSSLNHLPRKSITTMGEDDDLMVLLWQNGQVVVQNQRLHTKKPSSSPPKLLPSMDPQQQPSSDQNLFIQEDEMTSWLHYPLRDDDFCSDLLFSAAPTATATATVSQVTAARPPVSSTNESRPPVRNFMNFSRLRGDFNNGRGGESGPLLSKAVVRESTQVSPSATPSAAASESGLTRRTDGTDSSAVAGGGAYNRKGKAVAMTAPAIEITGTSSSVVSKSEIEPEKTNVDDRKRKEREATTTDETESRSEETKQARVSTTSTKRSRAAEVHNLSERKRRDRINERMKALQELIPRCNKSDKASMLDEAIEYMKSLQLQIQMMSMGCGMMPMMYPGMQQYMPHMAMGMGMNQPIPPPSFMPFPNMLAAQRPLPTQTHMAGSGPQYPVHASDPSRVFVPNQQYDPTSGQPQYPAGYTDPYQQFRGLHPTQPPQFQNQATSYPSSSRVSSSKESEDHGNHTTG	no binding
PIF5 with the APB-domain residue E31 exchanged to valine, in pGAD (protein, UniProt Q84LH8 1-444) MEQVFADWNFEDNFHMSTNKRSIRPEDELVVLLWRDGQVVLQSQARREPSVQVQTHKQETLRKPNNIFLDNQETVQKPNYAALDDQETVSWIQYPPDDVIDPFESEFSSHFFSSIDHLGGPEKPRTIEETVKHEAQAMAPPKFRSSVITVGPSHCGSNQSTNIHQATTLPVSMSDRSKNVEERLDTSSGGSSGCSYGRNNKETVSGTSVTIDRKRKHVMDADQESVSQSDIGLTSTDDQTMGNKSSQRSGSTRRSRAAEVHNLSERRRRDRINERMKALQELIPHCSRTDKASILDEAIDYLKSLQMQLQVMWMGSGMAAAAAAAASPMMFPGVQSSPYINQMAMQSQMQLSQFPVMNRSAPQNHPGLVCQNPVQLQLQAQNQILSEQLARYMGGIPQMPPAGNQMQTVQQQPADMLGFGSPAGPQSQLSAPATTDSLHMGKIG	no binding
